Experiments:
[1] = tested on: SL3 parental xenografts; test: SL3 xenograft model, parental; format: in vivo, NU/J mice; conditions: weekly 2.5 mg/kg cisplatin and/or 5 mg/kg 102-5; 24 days post-inoculation
Experimental: Four-week old female NU/J mice (2019, Jackson Laboratories) were acclimated for 1 week before injection of 0.5×10^6 parental SL3 or 1×10^6 cisplatin-resistant SL3-cis cells subcutaneously into the flank in 200 μL PBS. Tumors were measured with calipers and volumes were calculated by ½ (W×W×L). After tumors had grown to an average of 100 mm^3, mice were separated into groups of 5 mice, each group with 100 mm^3 average tumor sizes. Mice were treated weekly with intraperitoneal doses of PBS control, cisplatin 2.5 mg/kg, and/or 102-5 5 mg/kg in 200 μL of PBS at room temperature beginning on day 6 post-inoculation. Cisplatin treatments were administered 24 hours following antibody treatment. Tumor volume was measured at least weekly. Animal health was monitored daily and animal weights measured at least weekly. All procedures were reviewed and approved by MCW IACUC committee #2 under AUA6339.
J/NU mice xenografted with SL3 parental or SL3-cis platinum resistant cells were treated weekly with control vehicles, 2.5 mg/kg cisplatin, and/or 5 mg/kg 102-5 anti-CLPTM1L. The effects of cisplatin and those of 102-5 on cisplatin treatment were investigated in this model rather than those of carboplatin since the SL3cis line was developed specifically as a cisplatin resistant line.

[2] = tested on: Panc1 cells; test: gemcitabine killing with culture supernatants (live imaging cytotoxicity); format: cell-based, human
Experimental: (A) Western blotting of whole-cell, apoptotic bodies, extracellular vesicles, and microvesicles isolated from Panc1 cells treated with vehicle control or 200 nM gemcitabine. (B) Relative killing (live imaging cytotoxicity) of Panc1 cells treated for 48 hours with −40 nM gemcitabine and culture supernatants from donor cells with vector control or overexpressing CLPTM1L. (C) Relative killing (live imaging cytotoxicity) of Panc1 cells treated with 0-40 nM gemcitabine and culture supernatants (1:1 mix with fresh media) (top panel) or 25 μL extracellular vesicles (EVs) (ExoQuick exosomal fraction) per mL of media (bottom) from Panc1 donor cells with vector control, CLPTM1L overexpression, or CLPTM1L ectodomain deletion mutant (CLPTM1L ALoop) overexpression. (D) Western blotting of Panc1 lysates treated as above with the indicated supernatants and/or 102-5 anti-CLPTM1L for phospho-Akt (T308) and total Akt. (E) Characterization of extracellular vesicles isolated from human serum by ultra-centrifugation by western blotting for exosomal markers CD9 and CD63, and for CLPTM1L using 102-5 antibody (left); and by transmission electron microscopy (right). Scale bar=500 nM. […]
Cells were plate at equal density on 24 well tissue culture plates and treated as indicated. […] A killing index was calculated for each well by dividing the number of dead cells by the number of total cells. […]

[3] = antibody stability, NanoDSF melt curves; format: physicochemical; conditions: stored at 4° C. in PBS pH 7.4 for 5 months
Experimental: Antibodies stored at 4° C. in PBS pH 7.4 for 5 months.

[4] = tested on: platinum-resistant A2780 human ovarian tumor cells; test: carboplatin apoptotic killing (casp 3/7 live imaging); format: cell-based; conditions: 10 μM carboplatin; synergistic by ANOVA
Experimental: (A) A2780 apoptotic killing (casp 3/7 live imaging) after 36 hour mAb treatment (scFv clones 102-4a left, 102-5a right) and 24-hour carboplatin treatment. (B) Dose-response to up to 20 μM carboplatin in resistant A2780 cells treated with either control IgG1 or 102-5, relative to 0 carboplatin controls. (C) Kinetic killing assay (live imaging) in A2780 with human anti-CLP™1L scFv and/or 10 μM carboplatin treatment. *p<0.05, **p<0.005, ***p<0.0005. (D) Western blotting and densitometry for Akt and phospho-Akt (T308) in A2780 andA2780cis. (E) Cisplatin viability (MTT) inhibition curves for SL3 sensitive (parental) and resistant (SL3cis) tumor spheroids, pAkt (T308) and total Akt western blots on SL3 and SL3cis spheroid lysates (inset). […]
Cells were plated on 24-well tissue culture plates at equal density (˜80) confluence and allowed to attach overnight before treatment as indicated in at least triplicate. […] Confluence and fluorescent dead cell counts per well were monitored at 3 hour intervals using an Incucyte FLR live cell imager and software (Essen Biosciences, Ann Arbor, MI). Student's T-test determined significance of differences between groups, and ANOVA determined significance of interaction between treatments. […]

B1: 102-5: Human anti-CRR9/CLPTM1L IgG1; heavy chain V SEQ ID NO:30, light chain V SEQ ID NO:31 (antibody, V domains shown)
VH: EVQLLESGGGLVQPGGSLRLSCAASGFSFSSYEMNWVRQAPGKGPEWISYISSGGGTIYYADSVRGRFTISRDNSNNTLYLQMNSLRPDDTAIYYCARDRGRKWLQLLFDSWGQGTLVTVSS
VL: QAVLTQPPSASGTPGQKVTISCSGSSSNIGSNTVNWYQQLPGTAPKLLIYTNNQRPSGVPDRFSGSKSGASASLAISGLQSKDEADYYCAAWDDSLNGWVFGGGTKLTVLG
modifications: Synthetic- Anti-CRR9/CLPTM1L clone 102-5 heavy chain V; Synthetic- Anti-CRR9/CLPTM1L clone 102-5 light chain V
**Q.** For B1, which “tumor growth and volumes” value [1] is on record?
**A.** The value was “significantly inhibited”.

**Q.** What about the gemcitabine killing [2] of the same molecule?
**A.** Its gemcitabine killing is “sensitization to gemcitabine killing”.

**Q.** What about the “cytoprotection conferred by supernatants” value ([2]; supernatants from CLPTM1L-overexpressing cells) of the same molecule?
**A.** The value was “abrogated the cytoprotection conferred by supernatants”.

**Q.** And the antibody stability [3]?
**A.** The antibody stability was “stable under these conditions”.

**Q.** What about the “apoptotic killing response to carboplatin” value [4] of the same molecule?
**A.** Its value is “increased the apoptotic killing response of 10 μM carboplatin”.

From patent publication US12129305B2, “Targeting CLPTM1L for treatment and prevention of cancer” (The Medical College of Wisconsin, Inc., priority 2018, dated 2024)
